Each structure is given as a SMILES string. This is one part of the list.

One assay has as its system HSkMC. The assay can be described thus: cytotoxicity call (relative viability < 0.9). The settings on record: 10 µM.
The next assay concerns HepG2. The assay can be described thus: cytotoxicity call (relative viability < 0.9). The following applies: 10 µM.
A further assay concerns S. aureus RN4220. The assay can be described thus: growth inhibition call (relative growth <= 0.2). The following applies: 50 µM.

As for `C[C@H]1CN([C@@H](C)CO)S(=O)(=O)c2ccc(C#Cc3ccncc3)cc2O[C@@H]1CN(C)C(=O)c1ccncc1`, the cytotoxicity call with HSkMC was “inactive”. For the same compound, the cytotoxicity call in the assay on HepG2 was “active”. Also, the growth inhibition call in the assay with S. aureus RN4220 was “inactive”.

Regarding `COc1ccc(S(=O)(=O)N(C)C[C@@H]2OCc3cnnn3CCCC(=O)N([C@H](C)CO)C[C@@H]2C)cc1`, the cytotoxicity call in the assay with HSkMC and in the assay on HepG2 was “inactive” in each case. The growth inhibition call in the assay on S. aureus RN4220 was “inactive”.

As to `C[C@@H]1CCCCO[C@@H](CN(C)CC2CC2)[C@@H](C)CN([C@H](C)CO)C(=O)c2cc(NS(=O)(=O)c3cn(C)cn3)ccc2O1`, the cytotoxicity call with HSkMC and in the assay on HepG2 was “inactive” each time. Besides, in the assay on S. aureus RN4220, the growth inhibition call is “inactive”.

As to `C[C@@H]1CCCCO[C@H](CN(C)S(=O)(=O)c2ccc(Cl)cc2)[C@H](C)CN([C@H](C)CO)C(=O)c2cc(NC(=O)C3CCCCC3)ccc2O1`, in the assay with HSkMC, the cytotoxicity call was “inactive”. For the same compound, the cytotoxicity call in the assay on HepG2 is “active”. Moreover, the growth inhibition call with S. aureus RN4220 is “inactive”.

For the compound `C[C@H](CO)N1C[C@H](C)[C@H](CN(C)Cc2ccc(Cl)c(Cl)c2)OCCCC[C@H](C)Oc2ccc(NC(=O)Nc3ccc(F)cc3)cc2C1=O`, in the assay on HSkMC, the cytotoxicity call is “inactive”. Also, the cytotoxicity call in the assay on HepG2 was “active”. The growth inhibition call with S. aureus RN4220 is “inactive”.

Turning to `N#CCON1C(=O)c2ccccc2C1=O`, the cytotoxicity call in the assay on HSkMC and with HepG2 was “inactive” each time. Also, the growth inhibition call with S. aureus RN4220 was “inactive”.

Regarding `O=C(O)CN(CCN(CC(=O)O)CC(=O)O)CC(=O)O`, the cytotoxicity call in the assay on HSkMC and in the assay on HepG2 was “inactive” in each case. Further, the growth inhibition call in the assay with S. aureus RN4220 is “inactive”.

Turning to `COc1ccc(NC(=O)Nc2ccc3c(c2)C(=O)N([C@H](C)CO)C[C@@H](C)[C@@H](CN(C)C(=O)Nc2ccc(OC)cc2)OCCCC[C@@H](C)O3)cc1`, the cytotoxicity call in the assay with HSkMC and with HepG2 was “inactive” throughout. For the same compound, the growth inhibition call with S. aureus RN4220 was “inactive”.

Consider `C[C@@H]1CN([C@H](C)CO)S(=O)(=O)c2ccc(-c3ccc(C(=O)N(C)C)cc3)cc2O[C@@H]1CN(C)C(=O)C1CC1`, for which the cytotoxicity call in the assay on HSkMC and in the assay with HepG2 was “inactive” throughout. In addition, the growth inhibition call with S. aureus RN4220 is “inactive”.

For the compound `C[C@@H]1CCCCO[C@H](CN(C)C(=O)Nc2ccc3c(c2)OCO3)[C@H](C)CN([C@@H](C)CO)C(=O)c2cc(NC(=O)c3ccccc3)ccc2O1`, the cytotoxicity call with HSkMC and in the assay with HepG2 was “inactive” in each case. In the assay with S. aureus RN4220, the growth inhibition call is “inactive”.

Turning to `CO[C@@H]1CN(C)C(=O)c2cc(NC(=O)Nc3ccccc3)ccc2OC[C@H](C)N(C(=O)CN(C)C)C[C@H]1C`, the cytotoxicity call with HSkMC and in the assay on HepG2 was “inactive” throughout. In the assay on S. aureus RN4220, the growth inhibition call was “inactive”.

With `C[C@@H]1CN([C@@H](C)CO)C(=O)c2cccc(NC(=O)C3CCOCC3)c2O[C@H]1CN(C)Cc1ccc2c(c1)OCO2`, the cytotoxicity call in the assay with HSkMC and in the assay with HepG2 was “inactive” in each case. The growth inhibition call in the assay on S. aureus RN4220 was “inactive”.

Take `C[C@H](CO)N1C[C@H](C)[C@H](CN(C)C(=O)Nc2cccc3ccccc23)Oc2ncc(-c3cccc(C(F)(F)F)c3)cc2C1=O`: the cytotoxicity call with HSkMC and with HepG2 was “inactive” each time. The growth inhibition call in the assay with S. aureus RN4220 is “inactive”.

As for `C[C@@H]1CN([C@@H](C)CO)C(=O)Cc2cc(N(C)C)ccc2O[C@H]1CN(C)S(=O)(=O)c1ccc(F)cc1`, the cytotoxicity call with HSkMC and with HepG2 was “inactive” throughout. Also, in the assay on S. aureus RN4220, the growth inhibition call is “inactive”.

For `Cc1ccc(S(=O)(=O)Nc2ccc3c(c2)CC(=O)N([C@H](C)CO)C[C@H](C)[C@H](CN(C)S(=O)(=O)c2cn(C)cn2)O3)cc1`, the cytotoxicity call with HSkMC and with HepG2 was “inactive” each time. Further, in the assay on S. aureus RN4220, the growth inhibition call is “inactive”.

With `O=C(C[C@@H]1CC[C@H]2NC[C@H](O)COC[C@@H]2O1)NCCN1CCCC1`, the cytotoxicity call in the assay on HSkMC and with HepG2 was “inactive” each time. Further, in the assay with S. aureus RN4220, the growth inhibition call was “inactive”.

Regarding `C[C@H]1CC/C=C\[C@H]2O[C@@]34C=CCN(c5ccc(Cl)cc5)C(=O)[C@H]3N([C@@H](C)CO)C(=O)[C@]4(C)[C@@H]2C(=O)O1`, the cytotoxicity call with HSkMC and with HepG2 was “inactive” each time. In the assay with S. aureus RN4220, the growth inhibition call is “inactive”.

As for `C[N+](C)(C)CCCCNC(=O)[C@H]1C[C@H]2C(=O)NCC(=O)N2[C@H]1c1ccc(O)cc1`, the cytotoxicity call with HSkMC and with HepG2 was “inactive” in each case. In the assay with S. aureus RN4220, the growth inhibition call is “inactive”.

With `Cc1ccc(S(=O)(=O)Nc2ccc3c(c2)C(=O)N([C@@H](C)CO)C[C@H](C)[C@@H](CN(C)CC2CC2)O3)cc1`, the cytotoxicity call with HSkMC and with HepG2 was “inactive” throughout. Besides, the growth inhibition call in the assay on S. aureus RN4220 was “inactive”.

As to `COc1cccc(S(=O)(=O)N(C)C[C@H]2Oc3ncc(-c4cccc(C(=O)N(C)C)c4)cc3C(=O)N([C@@H](C)CO)C[C@@H]2C)c1`, the cytotoxicity call with HSkMC and in the assay on HepG2 was “inactive” in each case. Also, in the assay with S. aureus RN4220, the growth inhibition call is “inactive”.

For `C[C@@H]1CN([C@@H](C)CO)C(=O)c2cc(NC(=O)Cc3ccccc3)ccc2O[C@@H]1CN(C)S(=O)(=O)c1cccs1`, the cytotoxicity call in the assay with HSkMC and in the assay on HepG2 was “inactive” in each case. Besides, the growth inhibition call with S. aureus RN4220 was “inactive”.

On to `COc1ccc(S(=O)(=O)Nc2ccc3c(c2)C(=O)N([C@H](C)CO)C[C@H](C)[C@H](CN(C)C(=O)Nc2cccc4ccccc24)O3)cc1`, for which the cytotoxicity call in the assay on HSkMC and in the assay on HepG2 was “inactive” each time. For the same compound, the growth inhibition call with S. aureus RN4220 was “inactive”.

Consider `COc1cccc(S(=O)(=O)N(C)C[C@@H]2Oc3ncc(-c4cccc(C(=O)N(C)C)c4)cc3C(=O)N([C@@H](C)CO)C[C@@H]2C)c1`, for which the cytotoxicity call in the assay on HSkMC and in the assay with HepG2 was “inactive” throughout. Further, in the assay on S. aureus RN4220, the growth inhibition call is “inactive”.

For the compound `C[C@@H]1CCCCO[C@H](CN(C)C(=O)CCC(F)(F)F)[C@@H](C)CN([C@H](C)CO)C(=O)c2cc(NC(=O)Nc3ccccc3)ccc2O1`, the cytotoxicity call with HSkMC and in the assay on HepG2 was “inactive” in each case. Besides, the growth inhibition call in the assay on S. aureus RN4220 was “inactive”.

On to `CCCCCCc1nc(CCCc2cc3c(c(CCCCCC)n2)[Si](C(C)C)(C(C)C)OC3)cc2c1[Si](C(C)C)(C(C)C)OC2`, for which the cytotoxicity call with HSkMC and in the assay with HepG2 was “inactive” in each case. Besides, in the assay on S. aureus RN4220, the growth inhibition call is “inactive”.

`CO[C@H]1CN(C)C(=O)c2ccc(NC(=O)C3CC3)cc2OC[C@H](C)N(C(=O)CN2CCOCC2)C[C@H]1C`: the cytotoxicity call in the assay on HSkMC (human skeletal muscle cells) and with HepG2 was “inactive” throughout. For the same compound, in the assay on S. aureus RN4220, the growth inhibition call is “inactive”.

Consider `NCCC(=O)N[C@@H](Cc1cnc[nH]1)C(=O)O`, for which the cytotoxicity call in the assay with HSkMC and with HepG2 was “inactive” in each case. The growth inhibition call in the assay with S. aureus RN4220 was “inactive”.

Source of the values: the antibiotic and cytotoxicity screens of Wong et al. (2023).
